# Laboratory results taken from the BET-seq Pho4 binding data (Le et al. 2018).
# This is one part of the list. Values were computed here from the reads of four pooled replicates and scatter widely.
# Target: T1, Pho4 (S. cerevisiae) (UniProt P07270)
# T1 sequence: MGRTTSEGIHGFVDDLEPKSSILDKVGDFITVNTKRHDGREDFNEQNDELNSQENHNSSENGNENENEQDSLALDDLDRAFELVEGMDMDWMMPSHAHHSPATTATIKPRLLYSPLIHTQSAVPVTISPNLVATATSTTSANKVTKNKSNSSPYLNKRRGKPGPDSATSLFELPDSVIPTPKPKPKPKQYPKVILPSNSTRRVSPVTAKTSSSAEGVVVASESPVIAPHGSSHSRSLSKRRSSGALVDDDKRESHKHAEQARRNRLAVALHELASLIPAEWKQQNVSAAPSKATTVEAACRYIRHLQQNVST
# Assay: relative binding free energy (BET-seq); higher = weaker binding
# Details: reference: library average
row,Sequence,relative binding free energy
1,TTTTCCACGTGAGTAG,0.22 kcal/mol
2,GTATTCACGTGATGCA,0.37 kcal/mol
3,ATAAACACGTGTATAG,0.04 kcal/mol
4,TGTGCCACGTGACAGG,-0.02 kcal/mol
5,TAGGACACGTGTTTGT,-0.09 kcal/mol
6,GTTATCACGTGATTAT,0.16 kcal/mol
7,TCTGGCACGTGAGGAT,0.21 kcal/mol
8,GTATTCACGTGGGTGG,0.1 kcal/mol
9,AGTTCCACGTGTTGTA,0.02 kcal/mol
10,CTTGTCACGTGGGGCT,0.03 kcal/mol
11,GTCTGCACGTGGAGGA,0.02 kcal/mol
12,ATAAGCACGTGATAGG,-0.08 kcal/mol
13,ACGAACACGTGGTGTT,-0.08 kcal/mol
14,GTGGGCACGTGAGCTG,0.05 kcal/mol
15,GGTAACACGTGCAGGT,-0.01 kcal/mol
16,TGAACCACGTGGTGTT,-0.14 kcal/mol
17,ATAGTCACGTGGAGTA,0.15 kcal/mol
18,AACGACACGTGTGGGT,0.13 kcal/mol
19,GGTTGCACGTGGCGAA,0 kcal/mol
20,GGTATCACGTGAGGTT,0.34 kcal/mol
21,GTGATCACGTGCAAGG,0.11 kcal/mol
22,AGGTACACGTGTTCTG,-0.07 kcal/mol
23,TGAGACACGTGGTTTA,-0.01 kcal/mol
24,ATGGACACGTGGGGGA,-0.1 kcal/mol
25,AGGGCCACGTGGGGTG,-0.27 kcal/mol
26,TGGAACACGTGGAGCG,0.05 kcal/mol

row,Sequence,relative binding free energy
1,CAAGTCACGTGGGGGG,0 kcal/mol
2,TTAGGCACGTGTTACG,-0.17 kcal/mol
3,TTAATCACGTGTTTTT,0.17 kcal/mol
4,TCGATCACGTGAGTGG,0.17 kcal/mol
5,TAGCACACGTGTATGT,-0.02 kcal/mol
6,CGGTTCACGTGTTTGA,0.31 kcal/mol
7,AGAGCCACGTGGGGAT,-0.21 kcal/mol
8,TGTGGCACGTGTGTTA,-0.09 kcal/mol
9,TTAAGCACGTGTATAA,-0.07 kcal/mol
10,CTGTGCACGTGTGAGA,0.08 kcal/mol
11,TTTTACACGTGTGACA,0.04 kcal/mol
12,GTTTACACGTGGGACT,0.17 kcal/mol
13,TGGAACACGTGGAGGC,0.24 kcal/mol
14,GGACGCACGTGGGGTC,-0.13 kcal/mol
15,ACTGTCACGTGGAGGT,0 kcal/mol
16,TGGGTCACGTGAGGCA,0.25 kcal/mol
17,GTTGTCACGTGGAAAG,0.18 kcal/mol
18,AGGGGCACGTGGCTTT,-0.09 kcal/mol
19,GGTTACACGTGGAGGT,0.11 kcal/mol
20,GGGCGCACGTGGGATA,-0.08 kcal/mol
21,TCTTGCACGTGATGGA,0.15 kcal/mol
22,GGGTGCACGTGGACTA,0.03 kcal/mol
23,CGAGGCACGTGGATTT,-0.05 kcal/mol
24,GTTGCCACGTGTAAGT,0.02 kcal/mol
25,GTACGCACGTGTGTTG,-0.25 kcal/mol
26,TTTGGCACGTGTAGCA,-0.21 kcal/mol

row,Sequence,relative binding free energy
1,TTGGTCACGTGTACGT,0.11 kcal/mol
2,GTGTTCACGTGTGTCC,0.25 kcal/mol
3,ATGATCACGTGGAATT,0.16 kcal/mol
4,TATGGCACGTGCTTAT,-0.22 kcal/mol
5,GGGATCACGTGGGGCG,0.15 kcal/mol
6,TATACCACGTGGAGGG,0.02 kcal/mol
7,AGAGTCACGTGGTTCG,0.06 kcal/mol
8,TTTCTCACGTGGATAT,0.21 kcal/mol
9,TGTTACACGTGGTTGA,0.24 kcal/mol
10,ATGTACACGTGAGGTC,0.25 kcal/mol
11,ATTTCCACGTGTGGTT,0.08 kcal/mol
12,TGGTTCACGTGTATGA,0.39 kcal/mol
13,ATTCTCACGTGGAGTG,0.15 kcal/mol
14,TAGGGCACGTGATGCT,-0.04 kcal/mol
15,TGGAGCACGTGGATGA,-0.23 kcal/mol
16,TGTAGCACGTGGGCAC,-0.15 kcal/mol
17,ATTGGCACGTGAGACT,0.15 kcal/mol
18,TATGGCACGTGCTTGC,-0.12 kcal/mol
19,TCTGGCACGTGCTGGA,-0.03 kcal/mol
20,AATGACACGTGTGGTG,0.14 kcal/mol
21,TATTGCACGTGCGGTT,-0.02 kcal/mol
22,GCTAGCACGTGGTGGA,-0.1 kcal/mol
23,AGTTCCACGTGGGGAT,-0.04 kcal/mol
24,ACAGGCACGTGCTGGG,-0.18 kcal/mol
25,TTGGGCACGTGCAGTG,-0.16 kcal/mol
26,GAATGCACGTGGGGCA,-0.01 kcal/mol

row,Sequence,relative binding free energy
1,CTGAACACGTGATGTT,0.23 kcal/mol
2,TTGTCCACGTGCTGGT,-0.02 kcal/mol
3,AGTAGCACGTGGGGTG,-0.16 kcal/mol
4,CGGTGCACGTGCGTTT,0.01 kcal/mol
5,TTTCTCACGTGCTCGT,0.3 kcal/mol
6,AGAGGCACGTGCTTGA,-0.14 kcal/mol
7,GGGGTCACGTGAACTG,0.34 kcal/mol
8,GGGAACACGTGGGGCT,0 kcal/mol
9,CAATGCACGTGAAGGT,0.31 kcal/mol
10,ATAAACACGTGTGTTA,-0.16 kcal/mol
11,ATTTTCACGTGTCATG,0.21 kcal/mol
12,TGGTACACGTGAACGG,0.2 kcal/mol
13,ATAAACACGTGCTGTG,0.06 kcal/mol
14,AGAGTCACGTGCAAGG,0.07 kcal/mol
15,TTAGGCACGTGGGATA,-0.16 kcal/mol
16,GTTTTCACGTGGGAAC,0.5 kcal/mol
17,ATGTCCACGTGGGAGT,-0.14 kcal/mol
18,TACTACACGTGTGGTA,0.11 kcal/mol
19,TATTTCACGTGGTTCG,0.19 kcal/mol
20,TATGTCACGTGGAGCT,0.02 kcal/mol
21,AATGGCACGTGTGATA,-0.05 kcal/mol
22,TTTGTCACGTGTCTGT,0.12 kcal/mol
23,GTTTCCACGTGAGTTG,0.23 kcal/mol
24,CGGGTCACGTGTTCTT,0.22 kcal/mol
25,ACGTTCACGTGGTTGT,0.11 kcal/mol
26,TGTGACACGTGTTTAG,-0.06 kcal/mol

row,Sequence,relative binding free energy
1,GTAGGCACGTGGGCTG,-0.19 kcal/mol
2,TTAAGCACGTGGTAGG,-0.13 kcal/mol
3,GGTTTCACGTGACGGA,0.39 kcal/mol
4,AAAGTCACGTGGGCAT,-0.01 kcal/mol
5,AGAAGCACGTGGTTGG,-0.19 kcal/mol
6,TGTGTCACGTGTATAA,0.02 kcal/mol
7,GTAGTCACGTGGATAT,0.06 kcal/mol
8,AGTGGCACGTGTTTAC,-0.05 kcal/mol
9,AAGCTCACGTGATGGT,0.43 kcal/mol
10,GTTTGCACGTGTTGAG,0.19 kcal/mol
11,CATGGCACGTGGAGTT,-0.04 kcal/mol
12,TGGATCACGTGAGCTT,0.29 kcal/mol
13,TGGAGCACGTGTGTTA,0.02 kcal/mol
14,GTATACACGTGGGGAA,-0.12 kcal/mol
15,TTTAACACGTGACATT,0.18 kcal/mol
16,TGATGCACGTGAATTG,0.2 kcal/mol
17,AGGCGCACGTGGAGGC,-0.05 kcal/mol
18,AGTGTCACGTGGTGAG,-0.14 kcal/mol
19,CGCGTCACGTGTTTGG,0.02 kcal/mol
20,TAATGCACGTGTAATT,0.06 kcal/mol
21,CTATGCACGTGTGCGT,-0.01 kcal/mol
22,TCTGTCACGTGTGAAT,0.18 kcal/mol
23,ATGTACACGTGTATTT,0.17 kcal/mol
24,ATTAGCACGTGCATGT,-0.1 kcal/mol
25,CGTGTCACGTGATTAT,0.2 kcal/mol
26,CTTAACACGTGTCGGG,0.09 kcal/mol

row,Sequence,relative binding free energy
1,TTACTCACGTGGGAGG,0.08 kcal/mol
2,AAGTGCACGTGGCTTA,-0.11 kcal/mol
3,ATTTTCACGTGGTGAT,0.27 kcal/mol
4,TGGATCACGTGGTTTG,0.08 kcal/mol
5,GTGTTCACGTGGTTTG,0.28 kcal/mol
6,GATGGCACGTGTCGTG,0.11 kcal/mol
7,TGTTTCACGTGTAGGG,0.22 kcal/mol
8,GTTTACACGTGATGTT,0.38 kcal/mol
9,ATTTTCACGTGTTCAT,0.28 kcal/mol
10,CGGGTCACGTGATATT,0.22 kcal/mol
11,ACATACACGTGGTGGG,-0.13 kcal/mol
12,AGGGGCACGTGTGAGA,-0.14 kcal/mol
13,AAGAGCACGTGATGTG,0.06 kcal/mol
14,ATATTCACGTGTTCGT,0.22 kcal/mol
15,GTCAGCACGTGATAGT,0.04 kcal/mol
16,TATGACACGTGTAGGA,0.07 kcal/mol
17,TCCATCACGTGGTGGG,0.12 kcal/mol
18,TGGCTCACGTGGGTGC,0.03 kcal/mol
19,TGTTGCACGTGATAGT,-0.04 kcal/mol
20,CGTTCCACGTGAGTGT,0.31 kcal/mol
21,GGTGACACGTGGTGGG,0.09 kcal/mol
22,ATGGGCACGTGCAATT,-0.14 kcal/mol
23,TGTGACACGTGGGGGG,-0.1 kcal/mol
24,AGCTACACGTGTGGAT,0.23 kcal/mol
25,TTAGGCACGTGATGTA,-0.08 kcal/mol
26,TAGGTCACGTGTGGGC,0.03 kcal/mol

row,Sequence,relative binding free energy
1,ATGGACACGTGTTATG,0.15 kcal/mol
2,TAAAACACGTGATTTG,0.16 kcal/mol
3,TGCAGCACGTGGAATG,0.05 kcal/mol
4,CTTTGCACGTGGTTGG,-0.04 kcal/mol
5,AAGTTCACGTGTCTTT,0.3 kcal/mol
6,GTTGCCACGTGGTGGG,-0.05 kcal/mol
7,GTGCTCACGTGAGTAG,0.3 kcal/mol
8,TTATGCACGTGCATTT,-0.06 kcal/mol
9,CTGGGCACGTGGGGCG,-0.27 kcal/mol
10,CTGATCACGTGTAGTT,0.18 kcal/mol
11,TATGGCACGTGTTTAC,-0.15 kcal/mol
12,GATGTCACGTGGGACT,0.03 kcal/mol
13,GTTTACACGTGTGAAG,0.29 kcal/mol
14,ATAGGCACGTGTAGTC,-0.12 kcal/mol
15,AGTTCCACGTGCGGTG,0.03 kcal/mol
16,GGATGCACGTGGTAGG,-0.14 kcal/mol
17,CTAGGCACGTGGTGAA,-0.12 kcal/mol
18,GGTGGCACGTGGACAT,-0.03 kcal/mol
19,ATAAGCACGTGTTCGG,-0.15 kcal/mol
20,TTTTGCACGTGCCAGG,-0.11 kcal/mol
21,TGTGACACGTGGGGCT,-0.18 kcal/mol
22,CGGGTCACGTGGCAAG,0.02 kcal/mol
23,AAGGGCACGTGGGTGT,-0.21 kcal/mol
24,TAGTGCACGTGTGTGG,-0.01 kcal/mol
25,GGATTCACGTGTTAGT,0.35 kcal/mol
26,CGTCTCACGTGTAGTT,0.13 kcal/mol

row,Sequence,relative binding free energy
1,TTTTGCACGTGTCTGC,-0.03 kcal/mol
2,TTTGTCACGTGATTGT,0.25 kcal/mol
3,TTTCACACGTGGGAGT,0.02 kcal/mol
4,TGGTGCACGTGACCGG,0.01 kcal/mol
5,TCGGTCACGTGGGAAT,0.04 kcal/mol
6,TTTAACACGTGGGGCG,-0.13 kcal/mol
7,TTTACCACGTGTTAGG,-0.01 kcal/mol
8,GGTGCCACGTGTATGA,0.12 kcal/mol
9,AGCGACACGTGTGGGA,0.15 kcal/mol
10,TCGTTCACGTGTAGTC,0.34 kcal/mol
11,TTGATCACGTGGTCAG,-0.03 kcal/mol
12,AGTCTCACGTGTATTT,0.02 kcal/mol
13,TTATACACGTGGCTGT,0.15 kcal/mol
14,GTGTACACGTGGACGG,0.15 kcal/mol
15,TGCTACACGTGCTGGG,0.05 kcal/mol
16,GCGGCCACGTGAGGGG,0.1 kcal/mol
17,TGGATCACGTGGGCGC,0.15 kcal/mol
18,CGTATCACGTGGTGTT,0.05 kcal/mol
19,GAAAGCACGTGATTTG,0.18 kcal/mol
20,AATAGCACGTGGTTGG,-0.1 kcal/mol
21,AGTTTCACGTGAGAAG,0.32 kcal/mol
22,CTTGTCACGTGTTGAG,0.12 kcal/mol
23,GGATACACGTGTGGGA,0.12 kcal/mol
24,GTGAACACGTGAGGAG,0.19 kcal/mol
25,GTCTGCACGTGGCTGG,-0.01 kcal/mol
26,CTTGTCACGTGTGTAG,0.05 kcal/mol

row,Sequence,relative binding free energy
1,ACGGGCACGTGTGGGG,-0.11 kcal/mol
2,TATTACACGTGGGAAA,0.03 kcal/mol
3,CGGGCCACGTGATAGG,0.03 kcal/mol
4,TTTAGCACGTGGTCGA,-0.18 kcal/mol
5,AAAAGCACGTGGTATA,-0.08 kcal/mol
6,GGGTTCACGTGTGGGT,0.38 kcal/mol
7,TTGGTCACGTGATTAA,0.38 kcal/mol
8,GGTATCACGTGGTGCT,0.06 kcal/mol
9,TTTGGCACGTGATCGA,-0.22 kcal/mol
10,ATGGGCACGTGGAGAA,-0.04 kcal/mol
11,AGTGACACGTGGGCTT,-0.22 kcal/mol
12,TGGGACACGTGGTGAC,-0.06 kcal/mol
13,GCGTGCACGTGTGGAC,0.21 kcal/mol
14,ATATTCACGTGATAGT,0.09 kcal/mol
15,TCTTACACGTGGTAGT,-0.01 kcal/mol
16,ACGCTCACGTGGAGGG,0.18 kcal/mol
17,TTTGTCACGTGAACGT,0.19 kcal/mol
18,ATATGCACGTGGTTGT,-0.08 kcal/mol
19,TACCGCACGTGTGGGA,0.07 kcal/mol
20,AGAGCCACGTGGGTAG,-0.23 kcal/mol
21,CAGTTCACGTGTGCAT,0.37 kcal/mol
22,TATTGCACGTGTAGCG,0.17 kcal/mol
